According to PubChem BioAssay AID1159614 (National Center for Advancing Translational Sciences (NCATS), 2016):
In all, about 45,000 compounds went through this assay and about 65 (0.1%) were called active. The call rests on the fitted dose curve; in most records, active means well fitted activation curve with a large enough effect; inconclusive means small, poorly fitted or top-dose-only effect; inactive means no such curve, though single readings can be large or run the other way. This is one part of the list.

target: Galactocerebrosidase (Homo sapiens) (UniProt P54803); assay: A Novel Cell-Based Assay to Identify Small Molecules for B -Galactocerebrosidase; details: 145M-Twi-hGALC-G270D cells (Twitcher mouse brain line with human GALC G270D), HMU-beta-Gal fluorescence, 48 h; series mostly up to 57.5 µM; activation: at the top concentration; further: 0% is about no effect; nearly all actives have a fitted effect of over 65% in size
Chain of UniProt P54803 (P54803 whole entry, looked up): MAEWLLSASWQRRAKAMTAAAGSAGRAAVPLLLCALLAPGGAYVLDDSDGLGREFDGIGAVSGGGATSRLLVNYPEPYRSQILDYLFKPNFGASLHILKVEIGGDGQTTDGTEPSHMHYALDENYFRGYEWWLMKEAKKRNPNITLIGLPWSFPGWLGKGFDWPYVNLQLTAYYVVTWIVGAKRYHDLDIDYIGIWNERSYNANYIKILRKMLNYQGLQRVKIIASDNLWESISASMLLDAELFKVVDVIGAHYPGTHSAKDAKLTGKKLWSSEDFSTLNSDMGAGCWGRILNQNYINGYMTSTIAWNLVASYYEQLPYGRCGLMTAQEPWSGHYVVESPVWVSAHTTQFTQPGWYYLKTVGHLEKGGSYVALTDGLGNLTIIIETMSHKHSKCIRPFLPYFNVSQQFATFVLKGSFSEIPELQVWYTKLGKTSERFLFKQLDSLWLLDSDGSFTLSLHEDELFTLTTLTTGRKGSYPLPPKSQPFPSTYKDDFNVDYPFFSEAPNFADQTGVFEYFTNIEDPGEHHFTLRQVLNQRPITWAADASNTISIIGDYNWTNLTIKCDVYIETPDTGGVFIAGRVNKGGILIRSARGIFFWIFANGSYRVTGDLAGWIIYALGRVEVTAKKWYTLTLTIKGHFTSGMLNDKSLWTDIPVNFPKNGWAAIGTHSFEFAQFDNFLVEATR
Outline: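 Brain-derived Twitcher mouse 145M-Twi cells stably expressing human GALC-G270D or wild-type GALC, treated live, then residual GALC activity read by fluorescence of HMU-b-Gal substrate (0.1 mM final) in citrate-phosphate buffer pH 5.2 with sodium taurocholate. Signal increase indicates enhancement.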

activation, inactive:
Cc1cccc(S(=O)(=O)c2cn(C)c3cc(N4CCCCCC4)c(F)cc3c2=O)c1 -15.5%
O=C(CSc1ccccc1)N1CCc2c([nH]c3ccccc23)C1c1ccc(Cl)cc1 (stereo unspecified) -41.3%
COc1cccc(C(=O)c2cn(CC(=O)Nc3cc(Cl)c(OC)cc3OC)c3nc(C)ccc3c2=O)c1 3.86%
COc1ccc(NC(=O)Cn2nc3c(cc2=O)CCCC3)cc1Cl 9.2%
CCCCc1nn2c(=O)cc(CN(CC)c3ccccc3)nc2s1 3.43%
CC(C)(C)c1ccc(C(=O)NNc2ncnc3c2cnn3-c2ccc(Cl)cc2)cc1 -18.6%
Cc1cccc(C)c1NC(=O)NCCCN1CCN(c2ccccc2)CC1 -9%
COc1cc(CN(C(=O)COc2ccc(Cl)cc2)c2ccccn2)cc(OC)c1OC -33.8%
Cc1ccc(C)c(NC(=O)C2CCN(c3ncnc4c3nc3n4CCCCC3)CC2)c1 -6.89%
COc1ccc(OC)c(C2=NS(=O)(=O)N(C)C(C(=O)Nc3ccc(C(C)=O)cc3)=C2)c1 -4.12%
O=C(CN1C(=O)C2(SCC(=O)N2c2ccccc2)c2ccccc21)Nc1ccccc1C(F)(F)F (stereo unspecified) -25%
CCOc1ccc(NC(=O)Cn2cc(S(=O)(=O)c3ccc(C)cc3)c(=O)c3cc(F)ccc32)cc1 -3.47%
CC(=O)c1nn(-c2ccc(OC(F)(F)F)cc2)nc1Nc1ccc(Cl)cc1 -8.36%
CCc1ccccc1NC(=O)CC(C)S(=O)(=O)c1ccc2c(c1)NC(=O)CO2 (stereo unspecified) -8.46%
O=C(CSc1nc2c([nH]c3ccccc32)c(=O)n1-c1ccccc1)NCc1ccc(F)cc1 -10%
CCNC(=O)C1CCN(c2nc3ccccc3nc2C(F)(F)F)CC1 -12.9%
CCc1ccc2occ(CC(=O)Nc3nnc(C)s3)c2c1 -26.1%
Cc1ccc(CN2C(=O)C(O)(CC(=O)c3ccc(C)cc3)c3ccccc32)cc1 (stereo unspecified) -20.9%
CCOC(=O)C1CCCN(C(=O)Cn2c(=O)cc(C)c3c(C)nn(C)c32)C1 (stereo unspecified) -3.9%
COc1ccc(S(=O)(=O)N2CCC(C(=O)NC(C)c3ccccc3)CC2)cc1 (stereo unspecified) 8.11%
COc1ccc(C(=O)c2cnc3ccc(C)cc3c2S(=O)(=O)c2ccccc2)cc1 -21.6%
O=C(Nc1ccc(Br)cc1)c1cc2nc(-c3ccccc3)cc(-c3ccccc3)n2n1 -3.87%
COc1ccc2[nH]cc(CCN=C(NC(=O)c3cccc(Cl)c3)Nc3nc(C)cc(C)n3)c2c1 -0.524%
Cc1ccc(NC(=O)c2cc(S(=O)(=O)NC3CCCCCC3)ccc2F)cc1F -14.2%
CCOc1ccc(-c2nnc(SCC(=O)NCc3ccc(Cl)cc3)o2)cc1 3.43%
Cc1ccc(N2CC(NC(=O)c3ccco3)CC2=O)cc1 (stereo unspecified) -1.8%
CCOc1ccc(NC(=O)CSC2=Nc3ccccc3C3=NC(CC(=O)NCc4ccccc4OC)C(=O)N23)cc1 (stereo unspecified) -7.21%
O=C(c1ccc2c(c1)N(Cc1ccc(F)cc1)C(=O)c1ccccc1S2(=O)=O)N1CCCCCC1 8.28%
COc1cccc(-n2c(=O)c3cc(OC)c(OC)cc3n(CC(=O)Nc3ccccc3)c2=O)c1 -8.76%
O=C(Nc1cc2c(cc1C(=O)c1ccc(Br)cc1)OCCO2)c1ccc(Cl)cc1 2.71%
Cc1ccc(S(=O)(=O)Nc2ccc3[nH]c(=O)sc3c2)cc1C -7.12%
O=C(c1ccc2c(c1)N(Cc1ccc(Cl)cc1)C(=O)c1ccccc1S2(=O)=O)N1CCC(Cc2ccccc2)CC1 -9.22%
Cc1ccc(S(=O)Cc2ccc(C(=O)NC3CCCCCC3)o2)cc1 (stereo unspecified) -15.6%
CNC(=O)CN(CCN(CCN(CC(=O)[O-])CC(=O)NC)CC(=O)[O-])CC(=O)[O-].O.[Gd+3] -14%
Cc1oc(-c2ccccc2F)nc1CS(=O)(=O)CC(=O)N1CCN(c2ccc(Cl)cc2)CC1 -7.48%
COc1ccc(CCn2c(=O)c3ccccc3n(CC(=O)Nc3cccc(C)c3)c2=O)cc1OC -3.48%
CC(=O)Nc1ccccc1-c1nc2ccccc2n(CC(=O)Nc2ccc(C)c(Cl)c2)c1=O -7.95%
Cc1ccc(C)c(S(=O)(=O)c2cn(C)c3cc(F)c(F)cc3c2=O)c1 -8.53%
CCc1cccc(NC(=O)c2c(N3CCCC3=O)c3cc(C)ccc3n2C)c1 -1.41%
CCn1c(COc2cccc(C)c2)nc2ccccc21 -14.9%
O=S(=O)(c1ccc(Br)cc1)c1nc(-c2cccs2)oc1SCc1ccc(F)cc1 -10.8%
CCS(=O)(=O)N1CCC2(CC1)OC(=O)C(C)=C2C(=O)NCc1cccc(Cl)c1 -13.1%
CCN(C(=O)CCS(=O)(=O)c1ccc2c(c1)oc(=O)n2C)c1ccc(OC)cc1 -17.1%
Cc1[nH]c2ccc(C(=O)Nc3ccc(F)cc3)cc2c1C -5.47%
Cc1ccccc1CN1C(=O)c2ccccc2S(=O)c2ccc(C(=O)NCc3ccco3)cc21 (stereo unspecified) -12.1%
Cc1ccc(NC(=O)CSc2nc3c(c(=O)[nH]2)CCC3)cc1Cl -0.408%
CC(C)CCNC(=O)CCC(=O)N1Cc2ccccc2Oc2ncccc21 -14.9%
CCn1c(SCC(=O)Nc2ccccc2)nc2c([nH]c3ccccc32)c1=O -21.4%
COc1cc2c(cc1NC(=O)COc1ccc(Br)cc1C)oc1ccccc12 -9.17%
Cc1ccc(C)c(N2CCN(C(=O)C3CCN(C(=O)c4cc5sccc5n4C)CC3)CC2)c1 -3.23%
Cc1ccccc1NS(=O)(=O)c1ccc2c(c1)NC(=O)CCS2 -17.6%
O=C(c1ccccc1)c1ccc2nc(N3CCN(c4ccccc4)CC3)c3nncn3c2c1 -9.31%
CN(C)c1cccc(C(=O)Nc2nc3ccc(S(=O)(=O)NC(C)(C)C)cc3s2)c1 -7.2%
Cc1ccc(CNC(=O)c2ccc3c(c2)NC(=O)C(CS(=O)(=O)Cc2ccc(F)cc2)N3)cc1 (stereo unspecified) -9.1%
COc1ccccc1C(=O)Nc1c(C(=O)N2CCN(c3ccccc3F)CC2)oc2ccccc12 -15.2%
Cc1ccc(NC(=O)c2ccc(COc3ccccc3Cl)o2)cc1 -11.8%
Cc1cc2c(cc1S(=O)(=O)NCc1ccccc1)OCC(=O)N2 -16.7%
COc1ccc(NC(=O)CCCSc2nc(-c3ccco3)cc(C(F)(F)F)n2)cc1 -13.7%
CC1=C(/C=C/C(C)=C/C=C/C(C)=C/C(=O)O)C(C)(C)CCC1 -12.3%
CCC1CCCCN1CCCNC(=O)c1cn(CC)c2ccc(S(=O)(=O)N(C)C3CCCCC3)cc2c1=O (stereo unspecified) -14%
CC(C)(C)c1ccc(C(=O)Nc2ccc(C(=O)OCc3cc(=O)n4ccsc4n3)cc2)cc1 7.83%
Cc1nc2ccc(S(=O)(=O)CCC(=O)Nc3ccc(C(C)C)cc3)cc2s1 -15.8%
COc1ccc(-c2cn3c(n2)sc2cc(C(=O)Nc4c(C)cccc4C)ccc23)cc1 -1.2%
Cc1ccc(CNC(=O)C2(c3cccs3)CCOCC2)cc1 3.89%
COC(=O)c1sc(-c2ccccc2)cc1NC(=O)Nc1ccccc1Cl -12.1%
O=C(/C=C/c1ccc(O)c(O)c1)O[C@@H]1C[C@@](OC(=O)/C=C/c2ccc(O)c(O)c2)(C(=O)O)C[C@@H](O)[C@@H]1O -13.1%
CCOC(=O)N1CCc2c(sc3c2c(=O)n(Cc2ccccc2)c(=O)n3CC(=O)Nc2cccc(C)c2)C1 -7.76%
Cc1cc(C)cc(Nc2nc3ccccc3nc2-n2nc(C)cc2C)c1 -6.81%
CN(C)S(=O)(=O)c1ccc(C(=O)Nc2c(C(=O)Nc3ccc(F)cc3)oc3ccccc23)cc1 -2.15%
COc1ccc(C(=O)n2nc(-c3ccc(Cl)cc3)nc2NCc2ccco2)cc1 7.88%
CCOc1ccc(NC(=O)CSc2ncnc3c2sc2ccccc23)cc1 -7.24%
CCc1ccc(NC(=O)c2cc3c(COC(C)=O)cnc(C)c3oc2=O)cc1 -8.9%
CCCCC(=O)Nc1cc(-c2nc3cccnc3s2)ccc1C -10.1%
COc1ccc(-c2nn(-c3ccc(C)cc3)c3c2cnc2ccc(C)cc23)cc1OC -7.29%
Cc1ccc(C)c(-n2nnc(-c3nc(-c4ccccc4C)no3)c2C)c1 -19.7%
COC(=O)c1cc(NC(=O)c2sc3ccccc3c2Cl)cc(C(=O)OC)c1 -14%
Cc1cccc(N2CCN(c3ncnc4c3nc3n4CCCCC3)CC2C)c1 (stereo unspecified) -21.5%
CCOc1ccc(-c2nc(CSCC(=O)NCc3ccc(C)cc3)c(C)o2)cc1 -15.2%
COc1ccc(CCNc2nc3cc(OC)c(OC)cc3c3nc(-c4ccccc4)nn23)cc1OC 9.56%
COC(=O)c1cc2occc2n1CC(=O)Nc1ccc(C)cc1Cl -10.4%
O=C(NCC(c1cccnc1)N1CCN(Cc2ccccc2)CC1)C(=O)Nc1cccc(Cl)c1 (stereo unspecified) -13.6%
O=C(O)c1cccc(-n2cnc3cccnc32)c1 -2.76%
CCCN1CCN(CCCNC(=O)C(CC)n2nc(C)n3c(cc4occc43)c2=O)CC1 (stereo unspecified) -11.7%
COc1cccc(NC(=O)c2cc3c(-c4ccc(Cl)cc4)nn(C)c3s2)c1 -12.5%
CC1=C(C(=O)O)N2C(=O)[C@@H](NC(=O)[C@H](N)C3=CCC=CC3)[C@H]2SC1 10%
COCc1c(Br)c(C)nc2sc3c(=O)n(-c4cccc(Br)c4)nnc3c12 -12.5%
N#Cc1ccccc1CSc1nnc2ccc3ccccc3n12 -12.6%
Cn1c(C(=O)N2CCC(C(=O)NCCc3ccccc3)CC2)cc2sccc21 -6.76%
CCC(C(=O)NC1CCCCC1)n1c(SCc2cccc(C)c2)nc2ccncc21 (stereo unspecified) -9.28%
CCN(CC)CCNC(=O)c1cn(CC)c2ccc(S(=O)(=O)N(C)C3CCCCC3)cc2c1=O -9.57%
Cc1cc(=O)n(CC(=O)NC(C)c2ccccc2)c2c1c(C)nn2-c1cccc(F)c1 (stereo unspecified) 4.63%
COc1cc(C(=O)NCCCCCC(=O)O)cc(OC)c1OC -10.8%
CC(NC(=O)c1ccco1)c1nc(-c2ccccc2)no1 (stereo unspecified) -8.18%
CCN1C(=O)c2ccccc2S(=O)(=O)c2ccc(C(=O)NCc3ccc(OC)cc3)cc21 -17.2%
Nc1ccc([N+](=O)[O-])cc1O -6.94% [at 114 µM]
COc1cc(OC)cc(-c2cc3nc(C)c(CCC(=O)Nc4ccccc4OC)c(C)n3n2)c1 -9.54%
